The other results are listed elsewhere or left out. Cut-off read from the data, not from the text of the source: active = 3.2 or more and inactive = the rest. The signal is at background level for most entries.
Biological target: SHP2 C-SH2 domain E139D
Assay: enrichment score (SH2-bound / input frequency) (ratio); bacterial display of known human phosphotyrosine sites (pTyr-Var adds point mutants) read by sequencing; higher = stronger binding; tyrosines were phosphorylated by kinases first
Details: peptide library: pTyr-Var
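Note: displayed peptides selected on beads carrying the immobilized SH2 domain, with library peptides lacking any tyrosine serving as negative controls.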

Enrichment score, inactive:
GHGRFYMKEAI [PGM1_Y66_D62H] 2.51
MKVPVYETPAG [PGM5_Y358] 0.83
LKGIRYLTSGL [PIGA_Y82_R77L] 1.14
YSNKLYYQLEQ [PDPR_Y109] 0.891
RPGSGYTKIMR [PKLR_Y564_N566K] 1.25
KRISCYEARYQ [PFKFB3_Y194_S197R] 0.909
EKSREYHRLFE [PIK3R1_Y463_D464H_YF] 0.922
MKVPLYETPAG [PGM5_Y358_V357L] 1.2
LNEWHYGGLTG [PGAM2_Y92_R90W] 1.61
MGIMLYGVDSR [PKD1_Y3143_V3138M] 0.888
QEALEYFMKQT [PIK3CA_Y1038_M1043T] 1.24
KKLHEYNTQFQ [PIK3R1_Y452] 0.925
LYIDSYEKDVA [PGM1_Y521] 1
PYIDSYEKDVA [PGM1_Y521_L516P] 0.675
RLDRSYSFSFS [PEAR1_Y890_YF] 0.585
FDDIAHIRKTL [PIK3CA_Y1021_Y1021H] 0.836
HDEPTYARSSK [PEAK1_Y616] 0.333
VGGRIYIDDAL [PKLR_Y218_G222A] 0.943
EESREYDRLYE [PIK3R1_Y463_K459E] 0.546

Biological target: SHP2 C-SH2 domain wild-type
Assay: as above
Details: peptide library: pTyr-Var

Enrichment score, inactive:
GHGRFYMKEAI [PGM1_Y66_D62H] 2.06
MKVPVYETPAG [PGM5_Y358] 0.827
LKGIRYLTSGL [PIGA_Y82_R77L] 0.907
YSNKLYYQLEQ [PDPR_Y109] 1.01
RPGSGYTKIMR [PKLR_Y564_N566K] 1.39
KRISCYEARYQ [PFKFB3_Y194_S197R] 1.2
EKSREYHRLFE [PIK3R1_Y463_D464H_YF] 0.875
MKVPLYETPAG [PGM5_Y358_V357L] 0.907
LNEWHYGGLTG [PGAM2_Y92_R90W] 1.15
MGIMLYGVDSR [PKD1_Y3143_V3138M] 0.921
QEALEYFMKQT [PIK3CA_Y1038_M1043T] 1.22
KKLHEYNTQFQ [PIK3R1_Y452] 0.753
LYIDSYEKDVA [PGM1_Y521] 0.992
PYIDSYEKDVA [PGM1_Y521_L516P] 0.6
RLDRSYSFSFS [PEAR1_Y890_YF] 0.517
FDDIAHIRKTL [PIK3CA_Y1021_Y1021H] 0.837
HDEPTYARSSK [PEAK1_Y616] 0.322
VGGRIYIDDAL [PKLR_Y218_G222A] 0.959
EESREYDRLYE [PIK3R1_Y463_K459E] 0.631

Biological target: SHP2 N-SH2 domain L43F
Assay: as above
Details: peptide library: pTyr-Var

Enrichment score, inactive:
GHGRFYMKEAI [PGM1_Y66_D62H] 2.13
MKVPVYETPAG [PGM5_Y358] 0.939
LKGIRYLTSGL [PIGA_Y82_R77L] 0.86
YSNKLYYQLEQ [PDPR_Y109] 0.673
RPGSGYTKIMR [PKLR_Y564_N566K] 1.02
KRISCYEARYQ [PFKFB3_Y194_S197R] 0.862
EKSREYHRLFE [PIK3R1_Y463_D464H_YF] 0.684
MKVPLYETPAG [PGM5_Y358_V357L] 0.881
LNEWHYGGLTG [PGAM2_Y92_R90W] 1.13
MGIMLYGVDSR [PKD1_Y3143_V3138M] 0.732
QEALEYFMKQT [PIK3CA_Y1038_M1043T] 1.07
KKLHEYNTQFQ [PIK3R1_Y452] 0.731
LYIDSYEKDVA [PGM1_Y521] 1.06
PYIDSYEKDVA [PGM1_Y521_L516P] 0.51
RLDRSYSFSFS [PEAR1_Y890_YF] 0.378
FDDIAHIRKTL [PIK3CA_Y1021_Y1021H] 0.862
HDEPTYARSSK [PEAK1_Y616] 0.308
VGGRIYIDDAL [PKLR_Y218_G222A] 0.926
EESREYDRLYE [PIK3R1_Y463_K459E] 0.513

Biological target: SHP2 N-SH2 domain T42A
Assay: as above
Details: peptide library: pTyr-Var

Enrichment score, inactive:
GHGRFYMKEAI [PGM1_Y66_D62H] 2.14
MKVPVYETPAG [PGM5_Y358] 0.903
LKGIRYLTSGL [PIGA_Y82_R77L] 0.847
YSNKLYYQLEQ [PDPR_Y109] 0.86
RPGSGYTKIMR [PKLR_Y564_N566K] 0.929
KRISCYEARYQ [PFKFB3_Y194_S197R] 0.828
EKSREYHRLFE [PIK3R1_Y463_D464H_YF] 0.644
MKVPLYETPAG [PGM5_Y358_V357L] 0.827
LNEWHYGGLTG [PGAM2_Y92_R90W] 0.981
MGIMLYGVDSR [PKD1_Y3143_V3138M] 0.747
QEALEYFMKQT [PIK3CA_Y1038_M1043T] 0.959
KKLHEYNTQFQ [PIK3R1_Y452] 0.74
LYIDSYEKDVA [PGM1_Y521] 0.677
PYIDSYEKDVA [PGM1_Y521_L516P] 0.607
RLDRSYSFSFS [PEAR1_Y890_YF] 0.447
FDDIAHIRKTL [PIK3CA_Y1021_Y1021H] 0.669
HDEPTYARSSK [PEAK1_Y616] 0.295
VGGRIYIDDAL [PKLR_Y218_G222A] 0.819
EESREYDRLYE [PIK3R1_Y463_K459E] 0.536

Biological target: SHP2 N-SH2 domain T52S
Assay: as above
Details: peptide library: pTyr-Var

Enrichment score, inactive:
GHGRFYMKEAI [PGM1_Y66_D62H] 2.03
MKVPVYETPAG [PGM5_Y358] 0.736
LKGIRYLTSGL [PIGA_Y82_R77L] 0.799
YSNKLYYQLEQ [PDPR_Y109] 0.941
RPGSGYTKIMR [PKLR_Y564_N566K] 0.85
KRISCYEARYQ [PFKFB3_Y194_S197R] 0.735
EKSREYHRLFE [PIK3R1_Y463_D464H_YF] 0.692
MKVPLYETPAG [PGM5_Y358_V357L] 0.927
LNEWHYGGLTG [PGAM2_Y92_R90W] 1.18
MGIMLYGVDSR [PKD1_Y3143_V3138M] 0.602
QEALEYFMKQT [PIK3CA_Y1038_M1043T] 0.885
KKLHEYNTQFQ [PIK3R1_Y452] 0.683
LYIDSYEKDVA [PGM1_Y521] 0.865
PYIDSYEKDVA [PGM1_Y521_L516P] 0.546
RLDRSYSFSFS [PEAR1_Y890_YF] 0.441
FDDIAHIRKTL [PIK3CA_Y1021_Y1021H] 0.957
HDEPTYARSSK [PEAK1_Y616] 0.308
VGGRIYIDDAL [PKLR_Y218_G222A] 0.78
EESREYDRLYE [PIK3R1_Y463_K459E] 0.571

Biological target: SHP2 N-SH2 domain wild-type
Assay: as above
Details: peptide library: pTyr-Var

Enrichment score, inactive:
GHGRFYMKEAI [PGM1_Y66_D62H] 1.6
MKVPVYETPAG [PGM5_Y358] 0.917
LKGIRYLTSGL [PIGA_Y82_R77L] 0.979
YSNKLYYQLEQ [PDPR_Y109] 0.821
RPGSGYTKIMR [PKLR_Y564_N566K] 0.75
KRISCYEARYQ [PFKFB3_Y194_S197R] 1.12
EKSREYHRLFE [PIK3R1_Y463_D464H_YF] 0.72
MKVPLYETPAG [PGM5_Y358_V357L] 0.906
LNEWHYGGLTG [PGAM2_Y92_R90W] 1.32
MGIMLYGVDSR [PKD1_Y3143_V3138M] 1.14
QEALEYFMKQT [PIK3CA_Y1038_M1043T] 1.16
KKLHEYNTQFQ [PIK3R1_Y452] 0.823
LYIDSYEKDVA [PGM1_Y521] 0.559
PYIDSYEKDVA [PGM1_Y521_L516P] 0.489
RLDRSYSFSFS [PEAR1_Y890_YF] 0.501
FDDIAHIRKTL [PIK3CA_Y1021_Y1021H] 0.787
HDEPTYARSSK [PEAK1_Y616] 0.339
VGGRIYIDDAL [PKLR_Y218_G222A] 1.06
EESREYDRLYE [PIK3R1_Y463_K459E] 0.637

Reference: the supplement of paper PMC10369915
